Results published in PubChem BioAssay (NCATS).
The shares of active, inactive and inconclusive entries below differ from those in the screen. Where the call is inconclusive, the potency comes from a doubtful curve fit. The source made the active and inactive calls. The call rests on the fitted dose curve; in most records, active means well fitted inhibition curve with a large enough effect; inconclusive means small, poorly fitted or top-dose-only effect; inactive means no such curve, though single readings can be large or run the other way.

The compounds below were run against Pyruvate kinase PKM (Homo sapiens) (UniProt P14618) (assay: qHTS Assay for Inhibitors of Human Muscle Pyruvate Kinase (AID 958)). Details: purified human PKM enzyme activity; series mostly up to 57.5 µM.
Method: NIH Molecular Libraries Screening Centers Network [MLSCN]
NIH Chemical Genomics Center [NCGC]
Wael M. Rabeh, Lyudmila Nedyalkova and Hee-Wan Park [Structural Genomics Consortium, 100 College St. Toronto, Ontario, Canada]
Human pyruvate kinase muscle 2 enzyme was supplied as a highly purified (>95% pure) preparation by the Structural Genomics Consortium in Toronto (Ontario, Canada) and was assayed for its ability to generate ATP from ADP using phosphoenolpyruvate (PEP) as a substrate. ATP generation was detected in a coupled reaction by luciferase-mediated luminescence, an ATP-dependent process. Pyruvate kinase substrates, PEP and ADP, were present in the assay at Km and approximately […]-fold below Km respectively. The enzyme was assayed at an intermediate level of activity to screen for inhibitors and activators.
NCGC Assay Protocol Summary:
Three uL of substrate mix (final concentration, 50 mM imidazole pH 7.2, 50 mM KCl, 7 mM MgCl2, 0.5 mM PEP, 0.1 mM ADP, 0.01% Tween 20, 0.05% BSA) was dispensed into 1536 well plates. 23 nL of compound were delivered by a pin tool and 1 uL of enzyme mix (final concentration, 0.1 nM pyruvate kinase, 50 mM imidazole pH 7.2, 0.05% BSA) was added. Plates were incubated at room temperature for 1 hour. Two uL of detection and kinase stop mix (PKLight, Cambrex) was added, the plates centrifuged, and luminescence read by a ViewLux (Perkin Elmer) at 5 second exposure/plate. Data were normalized to the uninhibited and AC100 inhibition (no enzyme or 110 uM N-methyl-2,3-diphenyl-1,2,4-thiadiazol-5-imine; CID: 682802; LOPAC-S-4063). To monitor activation, 0.3 nM pyruvate kinase was included in one control column.

UniProt P14618, sequence (P14618 whole entry, looked up): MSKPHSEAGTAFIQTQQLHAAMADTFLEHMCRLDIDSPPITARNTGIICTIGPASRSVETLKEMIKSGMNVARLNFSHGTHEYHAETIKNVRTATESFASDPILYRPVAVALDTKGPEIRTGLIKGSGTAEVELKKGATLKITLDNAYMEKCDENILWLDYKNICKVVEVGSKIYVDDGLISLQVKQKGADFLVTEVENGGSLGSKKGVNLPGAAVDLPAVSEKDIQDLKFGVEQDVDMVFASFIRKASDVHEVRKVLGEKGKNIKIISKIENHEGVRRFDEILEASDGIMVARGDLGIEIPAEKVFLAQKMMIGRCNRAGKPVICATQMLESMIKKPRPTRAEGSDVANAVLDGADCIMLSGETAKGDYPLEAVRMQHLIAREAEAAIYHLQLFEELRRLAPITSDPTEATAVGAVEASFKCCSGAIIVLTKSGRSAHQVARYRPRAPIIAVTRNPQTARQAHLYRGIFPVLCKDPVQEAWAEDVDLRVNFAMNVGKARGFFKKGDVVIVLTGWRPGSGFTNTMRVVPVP

Structure (SMILES)	Potency
COC[C@H]1OC(=O)c2coc3c2[C@@]1(C)C1=C(C3=O)[C@H]2CCC(=O)[C@@]2(C)C[C@H]1OC(C)=O	inconclusive: 1.6 nM [inhibitor, full curve]
CC[C@]1(C2=NCCN2)Cc2ccccc2O1	inconclusive: 20 nM [inhibitor, full curve, poor fit]
O=C(O)c1cc[c]([Hg][Cl])cc1	active: 2510 nM
CCCN(CCC)[C@H]1CCc2c(F)ccc(O)c2C1	inconclusive: 6.3 nM [inhibitor, full curve]
C[C@]12Cc3cn4c(nc3C=C1CC[C@H]1[C@@H]2CC[C@@]2(C)[C@H]1CC[C@@]2(O)C#N)nc1ccccc14	inactive
CN1CCc2cc(O)cc3c2[C@H]1Cc1ccc(O)c(O)c1-3	inactive
C#CCN(C)[C@@H](C)Cc1ccccc1	inconclusive: 12.6 nM [inhibitor, full curve]
O=C(OC1CCN(CCCl)CC1)C(c1ccccc1)c1ccccc1	inconclusive: 12600 nM [inhibitor, partial curve]
CC(=O)NCCc1c[nH]c2ccccc12	inconclusive: 2510 nM [inhibitor, full curve]
NC(N)=Nc1ccc2[nH]c3c(c2c1)C[C@]1(O)[C@@H]2Cc4ccc(O)c5c4[C@]1(CCN2CC1CC1)[C@H]3O5	active: 10000 nM
CN[C@@H](C)[C@@H](O)c1ccccc1	active: 7940 nM
NNCc1cccc(O)c1	active: 15800 nM
COC(=O)c1cc2c(cn1)[nH]c1ccccc12	inconclusive: 2510 nM [inhibitor, partial curve]
OCc1cnc[nH]1	inconclusive: 3.2 nM [inhibitor, full curve, poor fit]
C=CCN1CCc2cccc3c2[C@@H]1Cc1ccc(O)c(O)c1-3	inactive
CCCCc1ccc(C(=O)O)nc1	inconclusive: 251 nM [inhibitor, full curve]
N#C/C(=C\c1ccc(O)c(O)c1)C(N)=S	inconclusive: 39800 nM [inhibitor, single point]
N[C@@H](Cc1cc(O)c(O)cc1O)C(=O)O	inactive
Oc1cc2c(cc1O)[C@H]1c3ccccc3CN[C@@H]1CC2	inactive
